This is an account of results in article PMC4568306 (Nature, 2015).

Targets include nicastrin V224C (human, UniProt Q92542, V224C); nicastrin H222C (human, UniProt Q92542, H222C); PS1 N190C (human, UniProt P49768, N190C).
What all share (assay): cross-linking

B1: Pen-2 T100C (natural protein)
chain: not shown
Turning to B1, the binding result with nicastrin V224C is “binds”.

B2: Pen-2 L98C (natural protein)
chain: not shown
For B2, the binding result in the experiment with nicastrin H222C was “binds”.

B3: Pen-2 P97C (natural protein)
chain: not shown
In the case of B3, the binding result with PS1 N190C is on record as “binds”.
